Where no end group is shown, it is not given here.

The results in this text go back to patent publication US20100210555A1, “USE OF A LAMININ PEPTIDE AS A THERAPEUTIC AGENT” (priority 2007, published 2010).

This assay relates to RAW 264.7 (Mouse leukaemic monocyte macrophage cell line) cells. Kind of assay: Phagocytosis assay. Particulars: 10 micrograms per ml; RAW 264.7, Fluorescein-labeled Escherichia coli; combination peptide 1:peptide 2 1.10 mole: 0.90 mole. The assay is classed as cell-based.

On to “Cys-Ser-Arg-Ala-Arg-Lys-Gln-Ala-Ala-Ser-Ile-Lys-Val-Ala-Val-Ser-Ala-Asp-Arg-OH (CSRARKQAASIKVAVSADR-OH) [peptide 1]”, for which the “effect on the phagocytic activity of murine macrophages (increase)” value came out at 31.4%.

Consider “Pro-His-Pro-Phe-His-Leu-Phe-Val-Tyr-OH (PHPFHLFVY-OH) [peptide 2]”, for which the “effect on the phagocytic activity of murine macrophages (increase)” value is “no inhibitory or activating effects”.
